Measured values as given in PubChem BioAssay AID1508624 (National Center for Advancing Translational Sciences (NCATS), 2021).
Out of some 48,000 compounds screened, about 120 (0.25%) were called active. Not shown: some 4% with an inconclusive outcome. Calls follow the shape of the dose curve; as a rule, active = well fitted activation curve with a large enough effect; inconclusive = small, poorly fitted or top-dose-only effect, or another doubt; inactive = no such curve, though single readings can be large or run the other way. Some of the results follow.

Assay: Primary qHTS for Identification of Small Molecule Activators of Huntingtin-Antisense Promoter Activity; also: nearly all actives have a fitted effect of over 55% in size
Conditions: HEK293 HTT-AS promoter firefly luciferase reporter, 24 h; series mostly up to 57.5 µM; activity change, positive = activation: at the top concentration
Method in brief: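 Quantitative HTS used concentration series of up to 57.5 uM final on HEK293 luciferase reporter cells, 24 h at 37 degrees C. Readout was Dual-Glo firefly luminescence.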

Structure (SMILES)	activity change, positive = activation
Cc1cccc(NC(=O)N2CC(=O)Nc3sc4c(c3C2c2ccccc2)CCCC4)c1C (centres undefined)	inactive: -35.8%
CCOc1cc(CNC(=O)c2ccc3c(c2)NC(=O)C2CCCCN32)cc(OCC)c1OCC (centres undefined)	inactive: -10.3%
Cc1ccc(Cl)cc1N1CCN(C(=O)c2ccc3c(c2)N(Cc2ccc(F)cc2)CCS3)CC1	inactive: -19%
CCOc1ccccc1OCCCn1c(-c2ccc(Cl)cc2)nc2ccccc2c1=O	inactive: -14.9%
Cc1cn2c(=O)cc(COC(=O)c3ccc(NC(=O)COc4ccccc4F)cc3)nc2s1	inactive: -7.16%
Cc1cc(C)cc(-n2c(-c3ccccc3)c(C)n3c4c(=O)n(C)c(=O)n(C)c4nc23)c1	inactive: -0.262%
CCCS(=O)(=O)N1CC(=O)N(c2ccc(Cl)cc2C)C(C)(C(=O)NC2CCCC2)C1 (centres undefined)	inactive: -19.8%
COc1cc2nc(NC(=O)c3ccc(S(=O)(=O)N4CCOCC4)cc3)sc2cc1OC	inactive: -21.1%
COc1ccc(NC(=O)CSC2=Nc3ccccc3C3=NC(CCC(=O)NC4CCCCC4)C(=O)N23)cc1 (centres undefined)	inactive: -3.63%
CC(=O)c1cccc(NC(=O)C2CCN(S(=O)(=O)c3ccc4c(c3)oc(=O)n4C)CC2)c1	inactive: -14.4%
CCOC(=O)c1cccc(NC(=O)CCn2c(-c3ccc(F)cc3)cc(C(=O)OCC)c2C)c1	inactive: -29%
N[C@@H](CSCCCO)C(=O)O	inactive: -0.0036% [at 25.1 µM, percent change from vehicle, -100% = no light]
O=C(CSCc1ccccc1Cl)N1CCN(c2ccc(Cl)cc2)CC1	inactive: -9.96%
COc1c(C)cccc1C(=O)Nc1cccc2ccc(C)nc12	inactive: -25.7%
COc1cc(C2CC(=O)Oc3c2c(=O)n(C)c2ccccc32)ccc1O (centres undefined)	inactive: 0%
CCOC(=O)C1CCN(S(=O)(=O)c2ccc3c(c2)N(C)C(=O)CC(=O)N3C)CC1	inactive: 1.09%
COc1ccc(C(=O)NC2(C(F)(F)F)C(=O)Nc3c2c(=O)[nH]c(=O)n3CCc2ccc(OC)c(OC)c2)cc1 (centres undefined)	inactive: -6.67%
COc1ccc(-c2cc(C(C)=O)c(C)n2CCC(=O)Nc2cc(Cl)ccc2C)cc1	inactive: -36.9%
CC(=O)SCC(Cc1ccccc1)C(=O)NCC(=O)OCc1ccccc1 (centres undefined)	inactive: -36.5%
O=C(COc1ccccc1)Nc1ccc2nc(SCCOc3ccccc3)sc2c1	inactive: -0.575%

Structure (SMILES)	activity change, positive = activation
CCOC(=O)c1c(C)[nH]c(C)c1S(=O)(=O)N(C)CC(=O)Nc1ccc(C)cc1C	inactive: -0.659%
Cc1cc(C)c2oc(-c3cccc(NC(=O)COc4ccc([N+](=O)[O-])cc4)c3)nc2c1	inactive: -28.1%
Cc1ccc(NC(=O)Cn2c(=O)n(CC3CCCO3)c(=O)c3ccccc32)cc1 (centres undefined)	inactive: -20.6%
Cc1ccc(Cl)cc1N1CCN(C(=O)c2ccc(CS(=O)(=O)c3ccccc3C)o2)CC1	inactive: -40.1%
Cc1cc(=O)n(CC(=O)N2CCN(c3ccccc3F)CC2)c2c1c(C)nn2C	inactive: -54.2%
CCc1ccccc1NC(=O)c1cnc(N2CCCCC2)c2ccccc12	inactive: -23.2%
COc1cc(C(=O)NCC(c2cccs2)S(=O)(=O)c2cccs2)cc(OC)c1OC (centres undefined)	inactive: -12.6%
CCOc1ccc(CCNC(=O)Cn2nc(CC)n3c(cc4ccccc43)c2=O)cc1	inactive: -1.74%
Cc1cc(Nc2cc(N3CCN(C)CC3)nc(C=Cc3ccccc3)n2)n[nH]1	inactive: -32% [at 116 µM, percent change from vehicle, -100% = no light]
CCOC(=O)c1[nH]c(C)c(CCC(=O)Nc2cc(C)ccc2OC)c1C	inactive: -12.3%
CCN1C(=O)c2ccccc2S(=O)c2ccc(C(=O)N3CCN(c4cc(Cl)ccc4C)CC3)cc21 (centres undefined)	inactive: -46%
Cc1ccccc1CN1CCC(CNC(=O)c2c(C)oc3ncnc(N4CCCCC4)c23)CC1	inactive: -5.55%
CCOc1ccc(CCNC(=O)C2=C(C)C(=O)OC23CCCCC3)cc1	inactive: -20.6%
CCC(Sc1nc(-c2ccccc2F)nc2c1Cc1c(CO)cnc(C)c1O2)C(=O)Nc1cc(C)ccc1C (centres undefined)	inactive: -14.9%
Fc1ccc(-c2noc3ncnc(NCc4ccc(Cl)cc4)c23)cc1	inactive: -44.8%
O=C(CCn1c(=O)c2cccn2c2cccnc21)NCc1ccc(F)cc1	inactive: -6.05%
CN(Cc1ccccc1)C(=O)c1ccc2c(c1)N(Cc1ccccc1Cl)C(=O)c1ccccc1S2	inactive: -38.8%
COc1ccc(Cl)cc1NC(=O)c1nn(-c2ccc(C)cc2)c(=O)n(C)c1=O	inactive: -8.32%
CCOC(=O)c1c(C)[nH]c(C)c1S(=O)(=O)N1CCCC(C(=O)N2CCN(c3cccc(C)c3C)CC2)C1 (centres undefined)	inactive: -22.8%
Cc1cccc(CNC(=O)CS(=O)(=O)c2cccc3nsnc23)c1	inactive: -14%

Structure (SMILES)	activity change, positive = activation
COc1cc(NC(=O)Cn2cnc(S(=O)(=O)N3CCCC3)c2)cc(OC)c1OC	inactive: -5.17%
COC(=O)C1=C(C)NC(C)=C(C(=O)OC(C)C)C1c1cccc2nonc12 (centres undefined)	inactive
CCN(C(=O)c1cnc2ccc(C)cn2c1=O)c1ccccc1	inactive: 14.6%
CCOC(=O)C1CCN(C(c2cccc(F)c2)c2c(O)cc(C)n(CCOC)c2=O)CC1 (centres undefined)	inactive: -17.9%
O=C1OC(OC(=O)c2cccnc2Nc2cccc(C(F)(F)F)c2)c2ccccc21 (centres undefined)	inactive: -9.84%
CCc1ccc(NC(=O)C2CCN(c3nn4c(=O)cc(C)nc4s3)CC2)cc1	inactive: -14.2%
O=C(Nc1ccc2c(c1)CCCN2C(=O)c1cccs1)c1ccccc1Cl	inactive: -23.8%
N#C[C@H]1C[C@H]2C[C@@H]2N1C(=O)[C@@H](N)C12CC3CC(CC(O)(C3)C1)C2	inactive: -14.2%
Cc1cccc(-c2nnc(C3CCN(S(=O)(=O)c4cccc(Cl)c4)CC3)o2)c1	inactive: -63.2%
CCOc1cc2[nH]c(=O)n(Cc3ccc(C(=O)N4CCN(c5cccc(Cl)c5)CC4)cc3)c(=O)c2cc1OCC	inactive: -20.5%
CC(=O)CSc1nnc2[nH]c(=O)cc(N)n12	inactive: 13.5%
Cn1nc(C(=O)Nc2ccc(F)c(Cl)c2)c2c1-c1ccccc1S(=O)(=O)C2	inactive: -19.1%
CCc1ccc(CNC(=O)C2CCN(c3nn4cc(-c5ccc(F)cc5)nc4s3)CC2)cc1	inactive: 9.78%
CCOC(=O)c1c(C)c(-c2ccccc2)n(CC(=O)NC2CCCCC2)c1C	inactive: -4.45%
O=C(Cn1c(=O)nc(-c2ccccc2)c2cc(Cl)ccc21)N1CCN(c2ccc(F)cc2)CC1	inactive: 1.81%
COc1ccc(Br)cc1CN1C(=O)c2ccccc2C1C(=O)NC1CCCCCC1 (centres undefined)	inactive: -9.53%
COC(=O)c1c(NC(=O)CCCOc2cccc(C)c2)sc2c1C(C(=O)OC)CC2 (centres undefined)	inactive: -26.2%
COc1cc(Oc2ccnc3cc(OC)c(OC)cc23)ccc1NC(=O)NC(C)c1nccs1 (centres undefined)	inactive: -24.6%
CCN(CC)C(=O)Cn1c(=O)n(Cc2ccc(C(=O)NCCc3ccc(OC)c(OC)c3)cc2)c(=O)c2ccccc21	inactive: -8.94%
